A compilation of properties of binary mixtures (doi:10.1021/ie5008568)
Some of these densities may be calculated back from excess volumes.

Assay: xn = mol fraction of the nth substance listed
Details: 100 kPa

CCCC[n+]1ccn(C)c1.O=S(=O)([N-]S(=O)(=O)C(F)(F)F)C(F)(F)F + OCC(F)(F)F
x2 = 0
Details	mass density [kg/m3]
283.15 K	1450.6
293.15 K	1440.7
313.15 K	1421.1
323.15 K	1411.5
333.15 K	1402.1

OCC(F)(F)F + CC[n+]1ccn(C)c1.F[B-](F)(F)F
mass density [kg/m3]
Details	x1 = 0.1206	x1 = 0.2915	x1 = 0.5217	x1 = 0.7181	x1 = 0.9009	x1 = 1
293.15 K	1291.6	1302.8	1321.9	1343.6	1373.7	–
303.15 K	1283.6	1294.2	–	1332.1	–	1372.8
313.15 K	1275.7	1285.8	1302.6	1320.7	–	–
323.15 K	1268	1277.5	1293.1	1309.4	–	–
333.15 K	1260.3	1269.4	1283.7	–	–	–

OCC(F)(F)F + CCCC[n+]1ccn(C)c1.O=S(=O)([N-]S(=O)(=O)C(F)(F)F)C(F)(F)F
mass density [kg/m3]
Details	283.15 K	293.15 K	303.15 K	313.15 K	323.15 K	333.15 K
x1 = 0.0991	1449	1439	1429.1	1419.3	1409.7	1400.1
x1 = 0.2953	1446	1435.6	–	1415	–	1395
x1 = 0.5341	1440.5	–	–	–	1396.5	1385.7
x1 = 0.6727	1435.9	–	1412.1	1400.4	–	1377
x1 = 0.9	1422.6	1408.4	1394.1	1379.6	1365.1	1350.4
x1 = 1	1406.9	1390.1	1372.8	1355	1336.8	1318.2

CC[n+]1ccn(C)c1.F[B-](F)(F)F + OCC(F)(F)F
x2 = 0
Details	mass density [kg/m3]
293.15 K	1284.7
303.15 K	1277
333.15 K	1254.5
